Patent US7592316B2, “Peptides as NS3-serine protease inhibitors of hepatitis C virus” (Schering Corporation, priority 2000, dated 2009)

target: HCV NS3/NS4A protease (strain 1a) (Hepatitis C virus genotype 1a, UniProt P27958); experiment: biochemical; details: Compounds prepared by Solid Phase Synthesis, Table 3; read-out: Ki* CLASS

Structure (SMILES) | Ki
CCCCC(NC(=O)CNC(=O)C(=O)C(CCC)NC(=O)[C@@H]1C[C@@H](OC(C)(C)C)CN1C(=O)C(NC(=O)CC1CCCC1)C1CCCCC1)C(N)=O (some centres unmarked) (Cyclopentylacetyl-[ξChg][Hyp](tBu)[X2]G[ξNle]-NH2) | 101 to 1000 nM
CCCCC(NC(=O)CNC(=O)C(=O)C(CCC)NC(=O)[C@@H]1C[C@@H](OCC(=O)O)CN1C(=O)C(NC(=O)C(CCC)CCC)C1CCCCC1)C(N)=O (some centres unmarked) ({Pentanoyl(2-Pr)}-[ξChg][Hyp](Carboxymethyl)[X2]G[ξNle]-NH2) | > 1000 nM
CCCC(NC(=O)[C@@H]1C[C@@H](OCC(=O)OC(C)(C)C)CN1C(=O)C(NC(=O)OCC(C)C)C1CCCCC1)C(=O)C(=O)NCC(=O)NC(COC(C)(C)C)C(N)=O (some centres unmarked) (Isobutyloxycarbonyl-[ξChg][Hyp](CH2CO2tBu)[X2]G[ξS](tBu)-NH2) | 101 to 1000 nM
CC(C)CC(NC(=O)[C@@H]1C[C@@H](OC(C)(C)C)CN1C(=O)[C@@H](NC(=O)c1c(F)c(F)c(F)c(F)c1C(=O)O)C1CCCCC1)C(=O)C(=O)NCC(=O)N[C@H](C(N)=O)c1ccccc1 (some centres unmarked) (X25-[Chg][Hyp](tBu)[ξLeu(ψCOCO)]G[Phg]-NH2) | > 1000 nM
CCCC(NC(=O)[C@@H]1C[C@@H](OCc2ccccc2)CN1C(=O)C(NC(=O)OCC(C)C)C(C)C)C(=O)C(=O)NCC(=O)NC(C(N)=O)C(C)(C)C (some centres unmarked) (Isobutyloxycarbonyl-[ξV][Hyp](Bn)[X2]G[ξTle]-NH2) | > 1000 nM
CCCC(NC(=O)[C@@H]1C[C@@H](OC(C)(C)C)CN1C(=O)[C@@H](NC(=O)OCC(C)C)C1CCCCC1)C(=O)C(=O)NCC(=O)NC(CC(N)=O)c1ccccc1 (some centres unmarked) | > 1000 nM
CCCCC(NC(=O)[C@@H]1C[C@@H](OCc2ccccc2)CN1C(=O)C(NC(=O)c1ccccc1Oc1ccccc1)C1CCCCC1)C(=O)C(=O)NCC(=O)NC(C(N)=O)c1ccccc1 (some centres unmarked) (X55-[ξChg][Hyp](Bn)[X4]G[ξPhg]-NH2) | > 1000 nM
CCCC(NC(=O)[C@@H]1C[C@@H](OC(C)(C)C)CN1C(=O)[C@@H](NC(=O)OCC(C)C)C1CCCCC1)C(=O)C(=O)NCC(=O)N[C@@H](CCC(=O)OC(C)(C)C)C(N)=O (some centres unmarked) (Isobutyloxycarbonyl-[Chg][Hyp](tBu)[X2]GE(OtBu)-NH2) | > 1000 nM

same assay, conditions: HCV protease continuous assay results, Table 1; read-out: Ki* Range

Structure (SMILES) | Ki
CCCC(NC(=O)[C@@H]1CC2(CN1C(=O)C(NC(=O)OCC(C)C)C1CCCCC1)SCCCS2)C(=O)C(=O)NCC(=O)NC(C(=O)O)c1ccccc1 (some centres unmarked) [Example 88] (Isobutyloxycarbonyl-[ξChg][Pro(4,4-S(CH2)3S)][X2]G[ξPhg]-OH) | 1 to 100 nM
CCCC(NC(=O)[C@@H]1CC2(CN1C(=O)[C@@H](NC(=O)OC1CCCC1)C1CCCCC1)SCCCS2)C(=O)C(=O)NCC(=O)NC(C(=O)N(C)C)c1ccccc1 (some centres unmarked) [Example 139] (X45-[Chg][Pro(4,4-S(CH2)3S)][X2]G[ξPhg]-NMe2) | 1 to 100 nM
CCCC(NC(=O)[C@@H]1CCCN1C(=O)[C@@H](NC(=O)OCC(C)C)C(C)C)C(=O)C(=O)NCC(=O)N[C@H](C(=O)OC)[C@@H](C)CC (some centres unmarked) [Example 17] (Isobutyloxycarbonyl-VP[X2]GI-OMe) | > 1000 nM
C=CCOC(=O)CNC(=O)C(=O)C(CCC)NC(=O)[C@@H]1CCCN1C(=O)c1ccc(N2CCNCC2)cc1 (some centres unmarked) [Example 4] | > 1000 nM
CCCCC(NC(=O)[C@@H]1C[C@@H](OC(C)(C)C)CN1C(=O)[C@@H](NC(=O)OCC(C)C)C(C)(C)C)C(=O)C(=O)NCC(=O)O (some centres unmarked) [Example 282] | > 1000 nM
CSCC(NC(=O)[C@@H]1C[C@@H](OC(C)(C)C)CN1C(=O)[C@@H](NC(=O)OCC(C)C)C(C)(C)C)C(=O)C(=O)NCC(=O)N[C@H](C(=O)N(C)C)c1ccccc1 (some centres unmarked) [Example 315] (Isobutyloxycarbonyl-[Tle][Hyp](tBu)[X46]G[Phg]-NMe2) | 101 to 1000 nM
CCCC(NC(=O)[C@@H]1CC2(CN1C(=O)C(NC(=O)OCC(C)C)C1CCCCC1)SCCCS2)C(=O)C(=O)NCC(=O)NC(C(=O)N(C)C)c1ccccc1 (some centres unmarked) [Example 112] (Isobutyloxycarbonyl-[ξChg][Pro(4,4-S(CH2)3S)][X2]G[ξPhg]-NMe2) | 1 to 100 nM
CC[C@@H](C)C(NC(=O)[C@@H]1C[C@@H](OC(C)(C)C)CN1C(=O)C(NC(=O)OCC(C)C)C(C)(C)C)C(=O)C(=O)NCC(=O)OC (some centres unmarked) [Example 224] | > 1000 nM
CCCC(NC(=O)[C@@H]1CC(O)CN1C(=O)C(NC(=O)OC(C)(C)C)C(C)(C)C)C(=O)C(=O)NCC(=O)NC(C(=O)N(C)C)c1ccccc1 (some centres unmarked) [Example 333] | 101 to 1000 nM

same assay, conditions: Table 4; HCV NS3/NS4A protease, spectrophotometric assay, 30° C., pH 6.5; read-out: Ki* Range

Structure (SMILES) | Ki
CCC[C@H](NC(=O)[C@@H]1CC[C@H](C)N1C(=O)[C@@H](NC(=O)OCC(C)C)C1CCCCC1)C(=O)C(=O)NCC(=O)N[C@H](C(=O)N(C)C)c1ccccc1 (Isobutyloxycarbonyl-[Chg][Pro(5S-Me)][X12]G[Phg]-NMe2) | 1 to 100 nM
CCCC(NC(=O)[C@@H]1CC(C)(C)CN1C(=O)[C@@H](NC(=O)OCC(C)C)C1CCCCC1)C(=O)C(=O)NCC(=O)NC(C(=O)OC)c1ccccc1 (some centres unmarked) (Isobutyloxycarbonyl-[Chg][Pro(4,4-Me2)][X2]G[ξPhg]-OMe) | 1 to 100 nM
CCCC(NC(=O)C1C[C@@H](CNC(=O)c2cccc(Oc3ccccc3)c2)CN1C(=O)[C@@H](NC(=O)c1ccccc1C(=O)O)C1CCCCC1)C(=O)C(=O)NCC(=O)N[C@H](C(N)=O)c1ccccc1 (some centres unmarked) | 1 to 100 nM

same assay, conditions: Table 5; HCV NS3/NS4A protease, 30° C., pH 6.5; read-out: Ki* Range

Ki | Structure (SMILES)
1 to 100 nM | C=CCCC(NC(=O)[C@@H]1[C@@H]2[C@H](CN1C(=O)[C@@H](NC(=O)OC(C)(C)C)C1CCCCC1)C2(C)C)C(=O)C(=O)NCCC(=O)N(C)C(C)(C)C (some centres unmarked)
1 to 100 nM | C=CCCNC(=O)C(=O)C(CCC=C)NC(=O)[C@@H]1[C@H]2[C@@H](CN1C(=O)C(NC(=O)NC(C)(C)C)C(C)(C)C)C2(Cl)Cl (some centres unmarked)
> 1000 nM | CCCC(NC(=O)[C@@H]1C2C(CN1C(=O)[C@@H](NC(=O)OC(C)(C)C)C1CCCCC1)C2(C)C)C(=O)C(=O)NCCC1=CCCCC1 (some centres unmarked)

*1 amine or outer side, *2 acyl side, *3 side chain or, on linkers, in order; H or OH if unused. Where a SMILES comes first, the peptide text is derived from it. [ ]: non-standard residue; d: D form. The star is where a group is joined. ξ: configuration not given here. Pro(4,4-S(CH2)3S) = O=C(O)[C@@H]1CC2(CN1)SCCCS2; ξLeu(ψCOCO) = CC(C)CC(N[*:1])C(=O)C(=O)[*:2]; Pro(4,4-Me2) = CC1(C)CN[C@H](C(=O)O)C1; Pro(5S-Me) = C[C@H]1CC[C@@H](C(=O)O)N1; X25 = O=C(O)c1c(F)c(F)c(F)c(F)c1C(=O)*; X12 = CCC[C@H](N[*:1])C(=O)C(=O)[*:2]; Isobutyloxycarbonyl = CC(C)COC(=O)*; Cyclopentylacetyl = O=C(CC1CCCC1)*; Pentanoyl(2-Pr) = CCCC(CCC)C(=O)*; X4 = CCCCC(N[*:1])C(=O)C(=O)[*:2]; X46 = CSCC(N[*:1])C(=O)C(=O)[*:2]; Hyp = O=C(O)[C@@H]1C[C@@H](O)CN1; X2 = CCCC(N[*:1])C(=O)C(=O)[*:2]; X55 = O=C(c1ccccc1Oc1ccccc1)*; CH2CO2tBu = CC(C)(C)OC(=O)C*; Chg = N[C@H](C(=O)O)C1CCCCC1; Phg = N[C@H](C(=O)O)c1ccccc1; Tle = CC(C)(C)[C@H](N)C(=O)O; ξChg = NC(C(=O)O)C1CCCCC1; ξPhg = NC(C(=O)O)c1ccccc1; ξTle = CC(C)(C)C(N)C(=O)O; Carboxymethyl = O=C(O)C*; ξNle = CCCCC(N)C(=O)O; X45 = O=C(OC1CCCC1)*; ξV = CC(C)C(N)C(=O)O; Bn = c1ccc(C*)cc1; OtBu = CC(C)(C)O*; ξS = NC(CO)C(=O)O; tBu = CC(C)(C)*
